{"source": "PubChem BioAssay AID588342", "about": "(National Center for Advancing Translational Sciences (NCATS), 2011)", "note": "The whole screen tested about 360,000 compounds, of which about 25,000 (6.9%) were called active. Inconclusive means that the source gave no clear call. Such entries were picked first, then a sample of the others. Calls follow the shape of the dose curve; as a rule, active = well fitted inhibition curve with a large enough effect; inconclusive = small, poorly fitted or top-dose-only effect; inactive = flat fitted curve, though single readings scatter. Where the call is inconclusive, the potency comes from a doubtful curve fit. Potency is read from the fitted curve at half-maximal effect; tags tell the direction and shape of the fitted curve.", "data": [{"biological_target": "Luciferin 4-monooxygenase (Photinus pyralis) (UniProt P08659)", "sequence (P08659 whole entry, looked up)": "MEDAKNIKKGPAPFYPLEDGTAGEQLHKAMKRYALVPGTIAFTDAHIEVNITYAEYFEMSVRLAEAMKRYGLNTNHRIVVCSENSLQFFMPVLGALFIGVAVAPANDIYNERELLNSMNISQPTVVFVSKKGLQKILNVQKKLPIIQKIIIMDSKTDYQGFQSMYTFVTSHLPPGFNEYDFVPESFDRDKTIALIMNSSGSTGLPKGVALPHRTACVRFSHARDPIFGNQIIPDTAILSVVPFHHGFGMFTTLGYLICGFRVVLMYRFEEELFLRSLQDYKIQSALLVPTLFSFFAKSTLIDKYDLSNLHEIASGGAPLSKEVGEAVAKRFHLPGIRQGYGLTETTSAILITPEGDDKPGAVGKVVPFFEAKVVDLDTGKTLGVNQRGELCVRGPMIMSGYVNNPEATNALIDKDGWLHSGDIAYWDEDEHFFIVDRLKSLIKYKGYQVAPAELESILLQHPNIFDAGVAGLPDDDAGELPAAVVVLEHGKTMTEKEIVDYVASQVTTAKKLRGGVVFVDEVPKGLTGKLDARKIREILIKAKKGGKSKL", "test": "qHTS profiling assay for firefly luciferase inhibitor/activator using purifed enzyme and Km concentrations of substrates (counterscreen for miR-21 project); also: nearly all actives have a fitted effect of over 55% in size", "conditions": "purified FLuc, luminescence inhibition; series mostly up to 57.5 µM", "procedure,_shortened": "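Purified P. pyralis luciferase (10nM final) with 10uM D-luciferin and 10uM ATP (Km levels) in 50mM Tris acetate pH 7.5, 10mM Mg acetate, 0.01% Tween-20, 0.05% BSA; qHTS 6-point titration, ~60 µM downward; luminescence read.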", "values": [{"smiles": "CC(C(=O)NC1CCCC1)N(C(=O)Cn1nnc(-c2ccc(F)cc2)n1)c1ccccc1F", "note": "(stereo not given)", "Potency": "inactive"}, {"smiles": "Cc1ccc(CNC(=O)c2ccc(N3CCC4(CC3)CC(c3ccccc3)=NO4)c(NC(=O)c3c(Cl)cccc3Cl)c2)cc1", "Potency": "inactive"}, {"smiles": "C#CCN(CC=C)C(=O)c1ccc(OC2CCN(S(=O)(=O)N(C)C)CC2)cc1", "Potency": "inconclusive: 26.9 µM [inhibitor, partial curve]"}, {"smiles": "Cc1cc2nc(N3C(=O)CNC3=S)sc2cc1C", "Potency": "active: 0.536 µM"}, {"smiles": "COc1ccc2sc3ccccc3c(=O)c2c1", "Potency": "active: 6.75 µM"}, {"smiles": "CN(C(=O)c1ccc(C#N)cc1)c1nnc(-c2ccccn2)s1", "Potency": "inactive"}, {"smiles": "COC(=O)C(Cc1ccccc1)NC(=O)CNC(=O)c1sc2ccccc2c1Cl", "note": "(stereo not given)", "Potency": "inconclusive: 37.9 µM [inhibitor, partial curve, poor fit]"}, {"smiles": "Cc1ccc(N(C(=O)Cc2cccs2)C(C(=O)NCC2CCCO2)c2ccncc2)cc1", "note": "(stereo not given)", "Potency": "active: 16.9 µM"}, {"smiles": "COc1ccc2c(c1)c(N1CCCC1=O)c(C(=O)Nc1cc(C)c(Cl)cc1OC)n2C", "Potency": "inconclusive: 23.9 µM [inhibitor, single point]"}, {"smiles": "O=C(c1cccn2c(=O)c3cc4ccccc4cc3nc12)N1CCN(c2ccccc2)CC1", "Potency": "inconclusive: 37.9 µM [inhibitor, partial curve, poor fit]"}, {"smiles": "CCN(c1ccccc1)S(=O)(=O)c1nnc(NC(=O)C2CCCCC2)s1", "Potency": "active: 2.69 µM"}, {"smiles": "CNC(=S)N/N=C/c1cc(C)n(-c2ccc(Cl)c(Cl)c2)c1C", "Potency": "inconclusive: 23.9 µM [inhibitor, partial curve, poor fit]"}, {"smiles": "C=CCn1c(SCC(=O)Nc2nc3ccccc3s2)nnc1-c1ccccc1O", "Potency": "inconclusive: 23.9 µM [inhibitor, partial curve, poor fit]"}, {"smiles": "O=C(Cn1nc2ccccc2n1)N/N=C/c1cc(Cl)cc([N+](=O)[O-])c1O", "Potency": "inconclusive: 13.5 µM [inhibitor, partial curve]"}, {"smiles": "O=C(c1ccco1)N1CCN(C(c2ccccc2)c2nnnn2C2CCCC2)CC1", "note": "(stereo not given)", "Potency": "inconclusive: 8.49 µM [inhibitor, partial curve, poor fit]"}, {"smiles": "CCOC(=O)C1(Cc2cccc(Cl)c2)CCCN(C(=O)c2cc(C)on2)C1", "note": "(stereo not given)", "Potency": "inconclusive: 21.3 µM [inhibitor, partial curve]"}, {"smiles": "CN1CCN(C(=O)CN(C2CCCCC2)S(=O)(=O)c2ccccc2)CC1", "Potency": "inactive"}, {"smiles": "CCOC(=O)c1ccccc1NC(=O)N1CCC(CN2CCOCC2)CC1", "Potency": "inactive"}, {"smiles": "CC(=O)c1sc(NC(=O)Cc2c(F)cccc2Cl)nc1C", "Potency": "inactive"}, {"smiles": "COC(=O)CCNc1ccc2c(c1)OCCO2", "Potency": "inconclusive: 30.1 µM [inhibitor, single point]"}]}]}
